From PubChem BioAssay AID504832 (National Center for Advancing Translational Sciences (NCATS), 2011)
Several values for one entry are separate records, joined by “and”; a condition that tells them apart may be missing. Equal entries are not always repeated. In all, about 310,000 compounds went through this assay and about 18,000 (5.8%) were called active. The shares of active, inactive and inconclusive entries below differ from those in the screen. Calls follow the shape of the dose curve; as a rule, active = well fitted inhibition curve with a large enough effect; inconclusive = small, poorly fitted or top-dose-only effect, or another doubt; inactive = no such curve, though single readings can be large or run the other way. Potencies of inconclusive entries are left out as doubtful fits.

Experiment: Primary qHTS for delayed death inhibitors of the malarial parasite plastid, 48 hour incubation
Conditions: P. falciparum luciferase growth in erythrocytes; series mostly up to 28.7 µM
In short: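 First compound was added to culture medium, then infected red cells at 0.1% parasitemia and 2% hematocrit (final). After incubation at 37 C under 5% CO2, luciferase detection reagent was dispensed and light output recorded.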
Potency is read from the fitted curve at half-maximal effect; tags tell the direction and shape of the fitted curve.

**Q.** Which Potency does the source give for O=C(CCn1cnc2ccccc2c1=O)Nc1cccc(Cl)c1 here?
**A.** inconclusive [inhibitor, partial curve, poor fit]

**Q.** Which Potency does the source give for Cc1ccc(CNC(=O)CN2C(=O)CSc3ccc(S(=O)(=O)N4CCC(C)CC4)cc32)cc1 here?
**A.** inconclusive [inhibitor, single point]

**Q.** Which Potency does the source give for CCc1ccc(S(=O)(=O)Nc2ccc(O)c3ccccc23)cc1 here?
**A.** active: 9.28 µM

**Q.** Which Potency does the source give for CCOC(=O)c1sc(NC(=O)CSc2nnc(-c3ccco3)o2)c(C(=O)OCC)c1C here?
**A.** inactive

**Q.** For O=C(c1cccc(Oc2c(Cl)cccc2[N+](=O)[O-])c1)N1CCCCC1, which Potency is on record?
**A.** inconclusive [inhibitor, single point]

**Q.** Which Potency does the source give for COCCNC(=O)C(c1ccncc1)N(Cc1ccccc1)C(=O)Cn1nnc2ccccc21 (stereo not given) here?
**A.** inactive

**Q.** With CCn1c(=O)c(C(=O)NCc2ccc(OC)c(OC)c2)c(O)c2ccccc21 as the compound, how does the Potency read?
**A.** inconclusive [inhibitor, single point]

**Q.** With CC(=O)c1cccc(NS(=O)(=O)c2ccc(N/C=C\C(=O)c3ccc(F)cc3)cc2)c1 as the compound, how does the Potency read?
**A.** inconclusive [inhibitor, single point]

**Q.** With CSCCOC(=O)c1[nH]c2c(c1C)C(=O)CC(c1ccco1)C2 (stereo not given) as the compound, how does the Potency read?
**A.** inconclusive [inhibitor, partial curve]

**Q.** With CC(=O)c1ccc(N(C(=O)CNC(=O)c2ccco2)C(C(=O)NCC2CCCO2)c2ccccc2)cc1 (stereo not given) as the compound, how does the Potency read?
**A.** inconclusive [inhibitor, partial curve, poor fit]

**Q.** For N=c1c2c(ncn1CCCO)Oc1c(ccc3ccccc13)C2c1ccccc1 (stereo not given), which Potency is on record?
**A.** inconclusive [inhibitor, single point]

**Q.** Which Potency does the source give for COCCCNC(=O)Cc1ccc(S(=O)(=O)N2CCOCC2)s1 here?
**A.** inconclusive [inhibitor, single point]

**Q.** Which Potency does the source give for COC(=O)c1ccc(N2CCN(C)CC2)c(NC(=O)COc2cccc(C)c2)c1 here?
**A.** inconclusive [inhibitor, single point]

**Q.** Which Potency does the source give for Cc1ccc2c(c1)N(CCCC(=O)Nc1cccc(C(F)(F)F)c1)C(=O)CO2 here?
**A.** inconclusive [inhibitor, single point]

**Q.** With CN(CC(=O)Nc1ccccc1)CC(=O)Nc1ccccc1Cl as the compound, how does the Potency read?
**A.** inactive

**Q.** With CCCc1cc(=O)oc2cc(C)cc(OC(C)C(=O)NCCCn3ccnc3)c12 (stereo not given) as the compound, how does the Potency read?
**A.** active: 4.15 µM

**Q.** With COc1cccc(-c2nn(C)c3sc(C(=O)N4CCN(c5ccccn5)CC4)cc23)c1 as the compound, how does the Potency read?
**A.** inconclusive [inhibitor, single point]

**Q.** Which Potency does the source give for COc1ccc(Cc2c(O)nc(SCC(=O)NC34CC5CC(CC(C5)C3)C4)[nH]c2=O)cc1 here?
**A.** inconclusive [inhibitor, partial curve, poor fit]

**Q.** With COC(=O)NC(NC(=S)Nc1ccccc1OC)C(Cl)(Cl)Cl (stereo not given) as the compound, how does the Potency read?
**A.** inconclusive [inhibitor, single point]

**Q.** With N#Cc1ccc(CSc2nnc(NC(=O)c3ccc(=O)[nH]c3)s2)cc1 as the compound, how does the Potency read?
**A.** inconclusive [inhibitor, partial curve]

**Q.** With COC(=O)c1ccc(C(=O)OC)c(NC(=S)N2CCN(c3ccc(F)cc3)CC2)c1 as the compound, how does the Potency read?
**A.** inconclusive [inhibitor, single point]

**Q.** For CN(Cc1ccc(Cl)c(Cl)c1)C(=O)CN1C(=O)NC2(CCCC2)C1=O, which Potency is on record?
**A.** inconclusive [inhibitor, single point]

**Q.** Which Potency does the source give for CC(=O)c1ccc(NC(=O)COC(=O)c2ccccc2N=Nc2ccc(N(C)C)cc2)cc1 here?
**A.** inconclusive [inhibitor, single point]

**Q.** Which Potency does the source give for CN(C)CC/C=C1/c2cc(F)ccc2CSc2ccc(F)cc21 here?
**A.** inconclusive [inhibitor, single point]

**Q.** For COc1ccc(CCNC(=O)/C=C/c2ccc(S(=O)(=O)N3CCOCC3)cc2)cc1, which Potency is on record?
**A.** inactive

**Q.** With C/C(=N\NC(=O)CN(c1ccc(Oc2ccccc2)cc1)S(C)(=O)=O)C(C)(C)C as the compound, how does the Potency read?
**A.** inconclusive [inhibitor, single point]

**Q.** For Cc1ccccc1NC(=S)N1CCC(NC(=O)c2ccco2)CC1, which Potency is on record?
**A.** inactive

**Q.** With Cc1c(NN=C(C#N)C#N)c(=O)n(-c2ccccc2)n1C as the compound, how does the Potency read?
**A.** inconclusive [inhibitor, partial curve, poor fit]

**Q.** With CCN(Cc1nc2cc(Cl)ccc2c(=O)[nH]1)C(=O)COc1ccccc1Cc1ccccc1 as the compound, how does the Potency read?
**A.** inconclusive [inhibitor, single point]

**Q.** For COc1ccc(CNC(=O)c2cc(=O)c3c(C)cc(C)cc3o2)cc1, which Potency is on record?
**A.** inactive

**Q.** For CCCCN1C(=O)c2ccc(C(=O)OCC(=O)N3CCN(c4ccccc4)CC3)cc2C1=O, which Potency is on record?
**A.** inactive

**Q.** For O=S(=O)(c1ccccc1)N(CC1CO1)c1cccc2ccccc12 (stereo not given), which Potency is on record?
**A.** active: 11.7 µM

**Q.** With CCC1(CC)Cc2ccccc2-c2nc(CN(C)C)[nH]c(=O)c21 as the compound, how does the Potency read?
**A.** inconclusive [inhibitor, single point]

**Q.** For C[C@@H]1CN=C2N(CCNC(=O)CCC3CCCCC3)[C@H](Cc3ccc(O)cc3)CN21, which Potency is on record?
**A.** inactive

**Q.** Which Potency does the source give for Cc1ccc(-c2csc(N3CCC[C@@H]3C(=O)NCCn3c(-c4ccncc4)nc4ccccc43)n2)cc1 here?
**A.** inconclusive [inhibitor, partial curve, poor fit]

**Q.** For CCCCOc1cc(C(=O)NCCN(CC)CC)c2ccccc2n1, which Potency is on record?
**A.** active: 11.7 µM and active: 13.1 µM

**Q.** For O=C(Cc1c(Cl)cccc1Cl)N1CCN(S(=O)(=O)c2cccs2)CC1, which Potency is on record?
**A.** inconclusive [inhibitor, single point]

**Q.** Which Potency does the source give for CCN(CC)CCCN=Cc1c(O)n(Cc2ccccc2)c(=O)c2ccccc12 here?
**A.** inconclusive [inhibitor, single point]

**Q.** With O=C(O)c1cccc(-n2c(/C=C/c3cccc([N+](=O)[O-])c3)nc3ccccc3c2=O)c1 as the compound, how does the Potency read?
**A.** inconclusive [inhibitor, partial curve, poor fit]

**Q.** With O=C(c1cc2sccc2n1Cc1ccc(F)cc1)N1CCN(c2nc3ccccc3s2)CC1 as the compound, how does the Potency read?
**A.** inconclusive [inhibitor, partial curve, poor fit]
